Out of some 310,000 compounds screened, about 2,200 (0.71%) showed an effect of 50% or more. Effects have a minus sign here. The list shows a part of the results.
What follows are molecules tested against human ether-à-go-go-related gene (hERG) potassium channel (human, UniProt Q12809) (assay: primary screen, population patch clamp on CHO cells stably expressing hERG).
Chain of human ether-à-go-go-related gene (hERG) potassium channel (Q12809 whole entry, looked up): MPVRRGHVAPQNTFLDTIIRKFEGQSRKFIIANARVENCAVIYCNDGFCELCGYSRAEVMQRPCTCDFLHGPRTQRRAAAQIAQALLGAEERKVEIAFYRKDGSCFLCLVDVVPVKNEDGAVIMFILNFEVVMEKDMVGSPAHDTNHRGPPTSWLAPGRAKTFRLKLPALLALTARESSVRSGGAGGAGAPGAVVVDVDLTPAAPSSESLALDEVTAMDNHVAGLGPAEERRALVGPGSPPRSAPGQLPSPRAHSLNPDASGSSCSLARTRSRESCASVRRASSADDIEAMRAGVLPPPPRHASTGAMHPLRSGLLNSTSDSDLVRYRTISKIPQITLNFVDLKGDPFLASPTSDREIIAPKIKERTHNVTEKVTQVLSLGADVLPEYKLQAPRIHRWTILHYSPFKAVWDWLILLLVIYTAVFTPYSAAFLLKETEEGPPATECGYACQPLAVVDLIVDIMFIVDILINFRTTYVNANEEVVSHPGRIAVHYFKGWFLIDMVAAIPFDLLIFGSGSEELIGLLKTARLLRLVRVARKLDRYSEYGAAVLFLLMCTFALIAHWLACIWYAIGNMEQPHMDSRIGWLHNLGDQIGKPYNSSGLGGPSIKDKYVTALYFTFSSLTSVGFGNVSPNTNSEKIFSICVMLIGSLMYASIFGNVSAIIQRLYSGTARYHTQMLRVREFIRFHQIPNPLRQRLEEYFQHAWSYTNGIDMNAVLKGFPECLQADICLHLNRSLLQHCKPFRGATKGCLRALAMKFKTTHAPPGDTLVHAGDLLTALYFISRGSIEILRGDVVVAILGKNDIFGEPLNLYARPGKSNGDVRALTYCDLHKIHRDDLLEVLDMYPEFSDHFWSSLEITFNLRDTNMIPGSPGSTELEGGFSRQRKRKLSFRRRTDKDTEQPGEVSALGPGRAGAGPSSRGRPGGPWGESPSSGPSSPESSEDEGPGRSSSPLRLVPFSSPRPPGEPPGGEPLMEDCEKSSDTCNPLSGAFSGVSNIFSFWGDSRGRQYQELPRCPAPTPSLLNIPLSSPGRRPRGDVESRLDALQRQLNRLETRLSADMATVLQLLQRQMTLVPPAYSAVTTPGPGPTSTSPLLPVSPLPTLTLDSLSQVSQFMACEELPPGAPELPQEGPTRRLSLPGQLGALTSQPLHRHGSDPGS

SMILES	hERG current change (%, negative = inhibition) at 1uM [%]
CN1CCN(S(=O)(=O)c2cccc(S(=O)(=O)c3ccc(Cl)cc3)c2)CC1	-2.89
NC(=O)C1CCN(C(=O)C2CCN(S(=O)(=O)c3ccccc3)CC2)CC1	8.34
COC(=O)CCNCCSc1nnc(-c2ccco2)n1Cc1ccccc1.O=C(O)C(=O)O	-32.1
Cc1cc(C)cc(NC(=O)C(OC(=O)c2ccc([N+](=O)[O-])o2)c2ccccc2)c1 (stereo not drawn)	11
COC(=O)CSc1nnc(Cc2ccccc2)n1-c1ccc(C)cc1	-0.227
O=C(C1=C(O)C(=O)N(CC2CCCO2)C1c1ccccc1[N+](=O)[O-])c1ccco1 (stereo not drawn)	10
CCO[C@H]1OC(C(=O)N2CCN(Cc3ccc4c(c3)OCO4)CC2)=C[C@@H](c2csc3ccccc23)[C@@H]1CCCO	17
CC(Cc1cccs1)NC(=O)Nc1ccc(Cl)c(Cl)c1 (stereo not drawn)	10
CC(=O)C1=C(C)NC(SCC(=O)c2ccc(F)cc2)=C(C#N)C1CC(C)C (stereo not drawn)	11.9
CC(C)(O)C(=O)NN(Cc1ccccc1)c1ccccc1	13.5
CN(CC(=O)Nc1cccc(F)c1)CC(=O)Nc1cccc(S(=O)(=O)N2CCCCC2)c1	3.38
CCn1c(SC/C=C/c2ccccc2)nnc1-c1cnccn1	5.49
O=S(=O)(Nc1nc(-c2ccccc2)cs1)c1cccc(C(F)(F)F)c1	10.5
CCOC(=O)CSc1nc2ccc(NC(C)=O)cc2s1	2.18
CCCOc1cccc(OCC(=O)Nc2nc3ccccc3[nH]2)c1	13.9
COc1cc(C(=O)OCC(=O)N2CCN(C(C)=O)CC2)ccc1OCC(C)C	12.6
O=C(c1cc(COc2c(F)cccc2F)on1)N1CCCCCC1	7
CC(=O)Nc1ccc(NC(=O)C(C)Sc2nc3ccccc3c(=O)n2CC2CCCO2)cc1 (stereo not drawn)	14.8
Cc1ccc(N2C(=O)NC(C(F)(F)F)(C(F)(F)F)C3=C2CC(C)(C)CC3=O)cc1	8.93
N#C/C(=C\c1ccc(-c2ccc(Br)cc2)o1)C(=O)NCCc1c[nH]c2ccccc12	19.4
CC(C)=CC(=O)Nc1ccc(S(=O)(=O)Nc2ccccn2)cc1	0.672
O=C(CSc1nnnn1C1CCCCC1)N1CCCC1	6.03
COc1ccc(-n2nnc3c(=O)n(CC(=O)Nc4cc(C)on4)cnc32)cc1	16.2
CCOC(=O)/C(C#N)=C1/SC(CCO)C(=O)N1c1ccccc1 (stereo not drawn)	18.1
CCc1ccccc1NC1=NCC(=O)N1Cc1ccc2c(c1)OCO2	10.1
Cl.Nc1ccc2c(c1)oc1ccccc12	20.1
O=C(CN(C1CCCCC1)S(=O)(=O)c1ccc(F)cc1)NCCCO	10.7

SMILES	hERG current change (%, negative = inhibition) at 1uM [%]
Nc1ccc(-c2cc(-c3ccc(N)cc3)nc(-c3ccccc3)n2)cc1	14.3
O=C(COC(=O)CCc1c[nH]c2ccccc12)Nc1ccccc1C(F)(F)F	-4.25
CCOC(=O)N1CCN(C(=O)CSc2nnc3[nH]c(=O)c(C)c(C)n23)CC1	2.6
O=C(Cn1nnc(-c2ccccc2)n1)Nc1cccc(S(=O)(=O)N2CCOCC2)c1	1.08
CCOC(=O)c1ccc(NC(=O)CSc2nc3cccnc3n2C)cc1	12.3
CCOC(=O)C1CCN(C(=O)CCc2nc3sc4c(c3c(=O)[nH]2)CCCC4)CC1	4.72
C#CCN(Cc1ccco1)C(=O)c1ccc(OC2CCN(Cc3ccccn3)CC2)cc1	-25.3
CC1CCN(CCCNC(=O)CN2CCN(Cc3ccc(Cl)cc3)C2=O)CC1	-25.7
Cc1cc(-c2ccc(C)c(S(=O)(=O)NCCc3ccco3)c2)on1	12.2
COc1cc(C(=O)Nc2ccc3c(c2)OCCO3)ccc1-n1cnnn1	14.6
COc1ccc(CNC(=O)C/C(C)=N/NC(=O)c2ccc([N+](=O)[O-])cc2Cl)cc1	9.93
CCC1(C(=O)OC)NC(c2ccco2)C2C(=O)N(c3ccc(C)cc3)C(=O)C21 (stereo not drawn)	12.7
O=C(O)CCNC(=O)/C(=C/C=C/c1ccccc1)NC(=O)c1ccccc1	9.54
C=CCc1cccc2ccc(=O)oc12	8.26
Cc1nc2ccc(NC(=O)c3cc([N+](=O)[O-])cc([N+](=O)[O-])c3Cl)cc2s1	7.05
COc1ccc(/C=N/NC(=O)c2cc(-c3cccc(C)c3)nc3ccccc23)cc1O	15.7
Cc1ccccc1NC(=O)Cc1nc(COC(=O)c2ccc(Cl)c(S(N)(=O)=O)c2)cs1	-33.3
Cc1ccc(S(=O)(=O)c2nc(S(C)(=O)=O)sc2N2CC(C)OC(C)C2)cc1 (stereo not drawn)	13.1
COC(=O)c1cc(C(=O)Cc2ccccc2)c[nH]1	-0.651
CC1CCCCN1S(=O)(=O)Cc1ccccc1Cl (stereo not drawn)	13.2
N#CCSc1nnc(COc2ccccc2)n1-c1ccccc1	-2.86
Cc1cc(CN2CCCC(C(=O)Nc3cccc(-n4cccn4)c3)C2)cc(C)c1O (stereo not drawn)	5.56
O=C(Nc1ccc(N2CCCCC2)cc1)c1ccccc1	14.9
Nc1nc(-c2cc(O)ccc2[N+](=O)[O-])cc(-c2ccccc2)c1[N+](=O)[O-]	5.18
O=C(COc1ncnc2cc([N+](=O)[O-])ccc12)N(CCc1ccccc1)Cc1ccccc1	18.9
CCOC(=O)c1sc(-c2ccccc2)cc1NC(=O)Nc1ccccc1	14.8
CC(C)=CCN1CCN(Cc2cccn2-c2ncccn2)CC1CCO (stereo not drawn)	-3.9
